Results reported in the supplement of paper PMC4466236.
Whole data set: some 33,000 sequences, median “E-score (dimensionless, -0.5 to 0.5)” near -0.058, cut for the highest 2% near 0.35. The list shows a part of the results.

tested on: MvaT; assay: PBM 8-mer E-score (mean of HK and ME arrays) (E-score (dimensionless, -0.5 to 0.5)); higher = stronger relative binding preference; most listed sequences are background and not binding sites
How it was run: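 Full-length P. aeruginosa MvaT, with glutathione S-transferase fused to its N-terminus (cloned into pTH6838 by isothermal assembly), was tested by protein binding microarray using a previously described protocol. Two universal double-stranded 60-mer arrays (ME and HK) were used, each with a constant 25-mer primer region and a variable 35-mer region covering all 8-mers. The rank-based 8-mer E-score (-0.5 to 0.5) is the mean of the two arrays, parsed with a custom Python script.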

First: TAATCTGA
Second: ACGCTTTA
The “PBM 8-mer E-score” value of the first is higher: 0.177 for the first, 0.116 for the second.

Compared with CGATTTCC, CAGGTCAC is lower in “PBM 8-mer E-score” value: 0.048 for the first, -0.224 for the second.

First: CTATCTGA
Second: GCCGTCGC
The “PBM 8-mer E-score” value of the first is higher: -0.00521 for the first, -0.208 for the second.

Going from CCAATGGC to AGTCAGCC, the “PBM 8-mer E-score” value rises from -0.204 to -0.175.

Going from GATAAAAC to TACCCGGA, the “PBM 8-mer E-score” value falls from 0.275 to -0.141.

Going from CCGAGTCA to ACTACGGA, the “PBM 8-mer E-score” value rises from -0.078 to 0.046.

Compared with AACACTGC, ATTCAAGC is lower in “PBM 8-mer E-score” value: 0.116 for the first, -0.0682 for the second.

First: TCTGGTCA
Second: CAATCATA
The “PBM 8-mer E-score” value of the first is lower: -0.151 for the first, 0.162 for the second.

Compared with TAAGGGCA, ACCAGGGC is lower in “PBM 8-mer E-score” value: 0.0358 for the first, -0.31 for the second.

Compared with ATCGGTAG, AGGAGTGG is lower in “PBM 8-mer E-score” value: -0.0749 for the first, -0.168 for the second.

Going from CACTAGGC to CACCAAAA, the “PBM 8-mer E-score” value rises from -0.2 to 0.0428.

Going from ATAAAGAA to GGAAGACA, the “PBM 8-mer E-score” value falls from 0.264 to -0.0366.

Compared with AATACCAT, TAGTCATA is lower in “PBM 8-mer E-score” value: 0.235 for the first, 0.175 for the second.

Going from AAAAGGTA to ACTCCGAA, the “PBM 8-mer E-score” value falls from 0.193 to -0.0019.

Going from ACTATTAG to CATGTAAA, the “PBM 8-mer E-score” value falls from 0.26 to 0.257.

Compared with CTGATCTA, AGCAGCGG is lower in “PBM 8-mer E-score” value: 0.0355 for the first, -0.196 for the second.

Compared with ACCGCTCT, CTACCCCA is higher in “PBM 8-mer E-score” value: -0.144 for the first, -0.0266 for the second.

Going from GAGACCGC to CGCTTGTC, the “PBM 8-mer E-score” value rises from -0.34 to -0.22.

First: GTGCTGTA
Second: AATCGTAA
The “PBM 8-mer E-score” value of the first is lower: 0.0346 for the first, 0.236 for the second.

First: CCAGCATC
Second: CATGAATC
The “PBM 8-mer E-score” value of the first is lower: -0.221 for the first, 0.0498 for the second.

Compared with AAATTGCC, CCGCGACC is lower in “PBM 8-mer E-score” value: 0.23 for the first, -0.253 for the second.

Compared with GAGGCTCC, TAAAGTTA is higher in “PBM 8-mer E-score” value: -0.316 for the first, 0.315 for the second.

First: AGCTAGAA
Second: AGCTGAGA
The “PBM 8-mer E-score” value of the first is higher: 0.0178 for the first, -0.0354 for the second.

First: GGACGACC
Second: CAGCAACG
The “PBM 8-mer E-score” value of the first is lower: -0.324 for the first, -0.128 for the second.

Compared with AAACGTTC, ATGGCTCC is higher in “PBM 8-mer E-score” value: -0.145 for the first, -0.134 for the second.

Compared with CCCGGTCG, TCCCCCCA is higher in “PBM 8-mer E-score” value: -0.255 for the first, -0.235 for the second.

Compared with CAAATGAA, AAAACCCC is lower in “PBM 8-mer E-score” value: 0.151 for the first, -0.261 for the second.

First: TCTACACA
Second: AATCCTAG
The “PBM 8-mer E-score” value of the first is higher: -0.00588 for the first, -0.0881 for the second.

First: GCCTTGAA
Second: GCGGTTTA
The “PBM 8-mer E-score” value of the first is lower: -0.137 for the first, 0.0736 for the second.

Compared with ATGCGATA, ATGCGAGG is lower in “PBM 8-mer E-score” value: 0.127 for the first, -0.0953 for the second.

Going from CCCGCAGA to CAAGGGCC, the “PBM 8-mer E-score” value falls from -0.249 to -0.256.

Compared with ATAGTTTG, AAGTTCCA is lower in “PBM 8-mer E-score” value: 0.267 for the first, 0.2 for the second.

First: AGCCACGC
Second: GAAGACCC
The “PBM 8-mer E-score” value of the first is lower: -0.309 for the first, -0.229 for the second.

Compared with TAAATGGA, CCCAAATA is lower in “PBM 8-mer E-score” value: 0.214 for the first, 0.14 for the second.

Going from CTAATAGC to AAATAGGC, the “PBM 8-mer E-score” value rises from 0.0517 to 0.11.

First: ATGTCAAG
Second: AGTATGGG
The “PBM 8-mer E-score” value of the first is higher: 0.0552 for the first, 0.0333 for the second.

Compared with GGAGCCTA, CATAAGAA is higher in “PBM 8-mer E-score” value: -0.266 for the first, 0.126 for the second.

First: GAGGCGCA
Second: AAGTGCGC
The “PBM 8-mer E-score” value of the first is lower: -0.21 for the first, 0.139 for the second.

Going from GTATAAAC to ATGAAAGG, the “PBM 8-mer E-score” value falls from 0.316 to -0.0354.

First: GCGAACCA
Second: CCACGCAG
The “PBM 8-mer E-score” value of the first is higher: -0.0933 for the first, -0.247 for the second.

Compared with ACCATACT, CGACTCCC is lower in “PBM 8-mer E-score” value: 0.163 for the first, -0.208 for the second.

Going from AATTATAA to TACCTTGA, the “PBM 8-mer E-score” value falls from 0.468 to 0.00172.

Compared with ATACCGAT, TAAGAAGA is lower in “PBM 8-mer E-score” value: 0.156 for the first, 0.0421 for the second.

Going from AAAGATGC to CCTACGGC, the “PBM 8-mer E-score” value falls from 0.0129 to -0.233.

Compared with CACGACTG, TCGCGGCA is lower in “PBM 8-mer E-score” value: -0.114 for the first, -0.137 for the second.

Going from CATTAATC to GGAGGTCA, the “PBM 8-mer E-score” value falls from 0.341 to -0.31.

Compared with AGGACCAT, GATCATAA is higher in “PBM 8-mer E-score” value: -0.205 for the first, 0.189 for the second.

First: AAACATAC
Second: AGTCCTAC
The “PBM 8-mer E-score” value of the first is higher: 0.284 for the first, -0.0839 for the second.

First: ATGCGATC
Second: TACGGTCA
The “PBM 8-mer E-score” value of the first is lower: -0.0626 for the first, 0.0766 for the second.

First: AGGTTGCG
Second: CGAGCTAC
The “PBM 8-mer E-score” value of the first is higher: -0.0949 for the first, -0.199 for the second.

Going from ACCGTTGC to GAACCTGA, the “PBM 8-mer E-score” value rises from -0.0839 to -0.0412.

First: CAGCTTAA
Second: CATCGCAA
The “PBM 8-mer E-score” value of the first is lower: -0.0172 for the first, 0.0845 for the second.

Compared with GGACAACA, ACCTTCGA is lower in “PBM 8-mer E-score” value: 0.149 for the first, -0.237 for the second.

First: ACACGACT
Second: TGACAAAA
The “PBM 8-mer E-score” value of the first is lower: -0.0741 for the first, 0.265 for the second.

First: TGCGCCCA
Second: TCACGGGA
The “PBM 8-mer E-score” value of the first is lower: -0.288 for the first, -0.111 for the second.

First: AGATACAT
Second: GGAAAGTA
The “PBM 8-mer E-score” value of the first is higher: 0.237 for the first, 0.072 for the second.

Compared with AACTGTGA, CCCGTCAG is lower in “PBM 8-mer E-score” value: 0.168 for the first, -0.267 for the second.

First: ACCCCTCA
Second: GCAAGCGC
The “PBM 8-mer E-score” value of the first is lower: -0.187 for the first, -0.166 for the second.

Going from AAATGAGT to ACGAAAGT, the “PBM 8-mer E-score” value rises from 0.125 to 0.13.

Going from GGACACCC to AAGCGAGC, the “PBM 8-mer E-score” value rises from -0.279 to -0.0148.

Going from TGGACCCA to AACCAATC, the “PBM 8-mer E-score” value rises from -0.295 to 0.132.

Compared with ATACATAG, CATGACAG is lower in “PBM 8-mer E-score” value: 0.294 for the first, -0.212 for the second.

First: ATAAGAGA
Second: GTGAAATA
The “PBM 8-mer E-score” value of the first is lower: 0.177 for the first, 0.262 for the second.

First: AACTTCAA
Second: ATAAAACC
The “PBM 8-mer E-score” value of the first is higher: 0.345 for the first, 0.246 for the second.

Compared with CTACGCGA, CGGGTGTC is lower in “PBM 8-mer E-score” value: -0.0603 for the first, -0.123 for the second.

First: CAGCTTTA
Second: AGCGCCTA
The “PBM 8-mer E-score” value of the first is higher: 0.13 for the first, -0.16 for the second.

First: AAGACTCC
Second: ACTAGCCA
The “PBM 8-mer E-score” value of the first is higher: -0.0249 for the first, -0.0869 for the second.

Going from CGATCGCC to CCAGCTAC, the “PBM 8-mer E-score” value falls from -0.0902 to -0.209.

First: GAAGTACA
Second: AAAGGAGC
The “PBM 8-mer E-score” value of the first is higher: 0.171 for the first, -0.27 for the second.

Going from CACGCTAC to TAAGCCCA, the “PBM 8-mer E-score” value rises from -0.025 to 0.0568.

First: AACGTCCC
Second: GTGGACAA
The “PBM 8-mer E-score” value of the first is lower: -0.176 for the first, 0.00541 for the second.

Going from CGAGTGTC to AAGGGTCC, the “PBM 8-mer E-score” value rises from -0.134 to -0.117.

First: CTATTACA
Second: GGGTCGGA
The “PBM 8-mer E-score” value of the first is higher: 0.267 for the first, -0.291 for the second.

First: ACTGGTGG
Second: GAACCTCA
The “PBM 8-mer E-score” value of the first is higher: -0.126 for the first, -0.186 for the second.

First: ACACGGAG
Second: CTCTTTCC
The “PBM 8-mer E-score” value of the first is lower: -0.193 for the first, -0.112 for the second.

First: CCTACTGA
Second: ATGTAACC
The “PBM 8-mer E-score” value of the first is lower: -0.277 for the first, 0.0775 for the second.

Compared with CAGACAAC, ACTCGGTG is lower in “PBM 8-mer E-score” value: 0.0973 for the first, -0.099 for the second.

Compared with TGTCAACA, ATAGCCTC is lower in “PBM 8-mer E-score” value: -0.0136 for the first, -0.0964 for the second.

Going from AAACTTGG to GGTCCCGA, the “PBM 8-mer E-score” value falls from 0.112 to -0.169.

First: CGCGCTAC
Second: GCCGGATA
The “PBM 8-mer E-score” value of the first is lower: -0.0539 for the first, 0.0499 for the second.

First: GGGTTTCA
Second: ACTCAGAG
The “PBM 8-mer E-score” value of the first is lower: -0.25 for the first, -0.000689 for the second.

Compared with TAGACATA, AGACTCAT is lower in “PBM 8-mer E-score” value: 0.0656 for the first, -0.0553 for the second.

Going from CTAGTATA to AGGGTACT, the “PBM 8-mer E-score” value falls from 0.331 to 0.0457.

Going from ATCCAGCG to CGCACAAA, the “PBM 8-mer E-score” value rises from -0.103 to 0.0368.

Compared with ACGAACCT, ATTCGGAA is higher in “PBM 8-mer E-score” value: -0.133 for the first, 0.0557 for the second.

Going from GCACCGTA to GGTGCGGA, the “PBM 8-mer E-score” value falls from -0.217 to -0.235.
